From patent US20250222123A1, “COMPOUND COMPRISING FC-BINDING UNIT, AND CONJUGATE PREPARED USING SAME” (ABTIS CO., LTD., priority 2022, published 2025)

B1: Antibody-A: antibody comprising a light chain of SEQ ID NO: 26 and a heavy chain of SEQ ID NO: 25 (antibody)
heavy: QVQLVESGGGVVQPGRSLRLSCAASGFSLTTYGVHWVRQAPGKGLEWVAVIWAGGSTNYNSALMSRFTISRDNSKNTLYLQMNSLRAEDTAVYYCARAAYYGNGLDYWGQGTMVTVSS[… human IgG1 constant region …]
light: DIVMTQSPLSLPVTPGEPASISCKSSQTLLNSGNQKNYLTWYLQKPGQSPQLLIYWASTGESGVPDRFSGSGSGTDFTLKISRVEAEDVGVYYCQNAYFYPFTFGGGTKVEIKRTVAAPSVFIFPPSDEQLKSGTASVVCLLNNFYPREAKVQWKVDNALQSGNSQESVTEQDSKDSTYSLSSTLTLSKADYEKHKVYACEVTHQGLSSPVTKSFNRGEC
modifications: anti-CLDN 18.2 antibody Heavy chain; anti-CLDN 18.2 antibody Light chain
B2: ADC-A (conjugate)
heavy: B1 heavy
light: B1 light

Tests used:
SNU601 cell line = assay: In vivo drug efficacy, SNU601 gastric cancer tumor model; design: species or system BALB/c nude mouse
Protocol: The SNU601 cell line, which is a CLDN18.2-positive gastric cancer cell line, was cultured in an RPMI culture solution containing 10% FBS and 1% penicillin/streptomycin in an incubator under the conditions of 37° C. and 5% CO2. The SNU601 cell line was regularly subcultured once a week through trypsin-EDTA treatment.
For Tumor Development, an SNU601 Cell Line (1×10^7) was Mixed with Serum-Free medium and Matrigel and the resulting mixture was inoculated subcutaneously into the left flank of each BALB/c nude mouse (purchased from Charles River Laboratories Japan Inc.). Each mouse was randomly assigned to eight groups (G1 to G8) on the basis that the average tumor volume in each group reached about 155 mm^3.
All animals were observed twice a day for mortality, abnormal symptoms, pain and signs of stress, and once a day for clinical signs. The change in body weight and the tumor volume were measured three times a week, and the tumor weight was determined after autopsy. The tumor volume, tumor difference, and tumor growth inhibition were calculated as follows:
Tumor Volume (mm^3)=(Length of major axis×length of minor axis^2)/2
Tumor difference, %=((Tumor weighttest group−Tumor weightcontrol (G1))/Tumor weightcontrol (G1))×100.
Tumor growth inhibition (%)=100−(((Tf/Ti)test group)/((Tf/Ti)control))×100.
Tf is the last tumor volume measured before autopsy, and Ti is the first tumor volume measured.
At this time, the measured tumor volumes are illustrated in FIG. 55. The measured body weights are illustrated in FIG. 56. The shape of the tumors after autopsy was the same as that in FIG. 57. The tumor weights determined after autopsy is illustrated in FIG. 58.
Numerical data regarding the performance of the study was calculated as mean and standard deviation. Group variances were compared using the Bartlett's test at a 0.05 significance level for each parameter. When the difference between group variances was not significant, a parametric one-way analysis of variance (ANOVA) was performed. When a significant difference between means was indicated by ANOVA (p≤0.05), group mean comparisons between the control and each treatment group were performed using Dunnett's test. […] When significance was identified by the Kruskal-Wallis test (p<0.05), the significance of the difference between the control and each treatment group was assessed using the Dunn's multiple comparison test. Significance was reported at the 0.05, 0.01 and 0.001 levels for the comparison of each group. All statistical analyses were performed using GraphPad PRISM® Version 5.0.

MIA PaCa-2 (CLDN18.2-) = assay: Real-time cellular internalization (Incucyte); format: cell-based; settings: 8, 4, and 2 μg/mL; cell line does not express CLDN18.2
Protocol: Real-time internalization measurements were performed according to the reagent and equipment manual.
The prepared cell lines were cultured in DMEM containing 10% FBS and 1% penicillin/streptomycin (MIA PaCa-2˜CLDN18.2, MIA PaCa-2 (CLDN18.2-)) and RPMI1640 containing 10% FBS and 1% penicillin/streptomycin (SNU601) in an incubator under the conditions of 37° C. and 5% CO2. 96-well plates were plated with MIA PaCa (CLDN18.2-), MIA PaCa-2˜CLDN18.2, and SNU601 cell lines at 3,000 to 5,000 cells/well.
Samples for internalization verification antibody-A and ADC-A were prepared according to the Incucyte@ Fabfluor -pH reagent manual.
Finally, antibody-A and ADC-A were diluted to 8, 4, and 2 μg/mL, respectively, and were treated to designated wells 50 μL of each. The plates mixed with the sample were measured every hour using the Incucyte@ Live-Cell Analysis System to measure the internalization levels. The measured values are illustrated in FIGS. 42 to 44.

SNU601 = assay: Cell-based ELISA, binding to antigen-expressing cancer cells; settings: SNU601 (CLDN18.2+)
Protocol: Four types of cell lines (MIA PaCa-2˜CLDN18.2, PATU8988S, parental MIA PaCa-2 (CLDN18.2-), and SNU601) were prepared. At this time, MIA PaCa-2˜CLDN18.2 and PATU8988S are CLDN18.2-positive pancreatic cancer cell lines. MIA PaCa-2 (CLDN18.2-) is a CLDN18.2-negative pancreatic cancer cell line. SNU601 is a CLDN18.2-positive gastric cancer cell line.
The prepared cell lines were cultured in DMEM containing 10% FBS and 1% penicillin/streptomycin (MIA PaCa-2˜CLDN18.2, MIA PaCa-2 (CLDN18.2-)), RPMI1640 containing 10% FBS and 1% penicillin/streptomycin (SNU601), and DMEM comprising 5% FBS, 5% horse serum, 1% penicillin/streptomycin, and […] L-glutamine (PATU8988S) in an incubator under the conditions of 37° C. and 5% CO2.
The prepared cell lines were plated on 96-well culture plates, treated with antibody-A, ADC-A, antibody-B, and ADC-B, respectively, and then cell-based ELISA was performed, and OD values were measured. At this time, the measured values are illustrated in FIGS. 38 to 41.
The measured results were used for regression analysis in GraphPad PRISM® 9.0 software to calculate EC50 and Bmax. The cell binding strengths of antibody-A, ADC-A, antibody-B, and ADC-B to each cell line were evaluated based on the calculated values.

[1] = target: T1, claudin 18.2 protein (CLDN18.2) (Homo sapiens, UniProt P56856); assay: Cell-based ELISA, Claudin 18.2 CHO-K1; format: binding; settings: for Bmax: CLDN18.2-CHO-K1, OD 450 nm, regression analysis; for binding to cell line (in words): Claudin 18.2 CHO-K1
T1 construct: expressed in transfected cells; host or cells: CHO-K1, transient, pcDNA3.1 (+) vector
From the text: A CHO-K1 cell line into which a gene (SEQ ID NO: 29) encoding the claudin 18.1 protein (CLDN18.1) was transiently transfected (hereinafter, referred to as “Claudin 18.1 CHO-K1”), a CHO-K1 cell line into which a gene (SEQ ID NO: 30) encoding the claudin 18.2 protein (CLDN18.2) was transiently transfected (hereinafter, referred to as “Claudin 18.2 CHO-K1”), and a CHO-K1 cell line into which only a MOCK vector (empty vector) was transiently transfected (hereinafter, referred to as “MOCK CHO-K1”) were prepared. At this time, a pcDNA3.1 vector was used in the case of Claudin 18.1 CHO-K1, and a pcDNA3.1 (+) vector was used in the case of Claudin 18.2 CHO-K1.
The CHO-K1 cell lines were cultured in RPMI1640 containing 10% FBS and 1% penicillin/streptomycin in an incubator under the conditions of 37° C. and 5% CO2.
Transient transfection was performed according to the TransIT2020 manual, the transfected cells were plated on a 96-well plate for culture, and then treated with antibody-A and ADC-A, respectively, and then cell-based enzyme-linked immunosorbent assay (ELISA) was performed, and optical density (OD) values were measured. At this time, the measured values are illustrated in FIGS. 34 to 36.
The measured results were used for regression analysis in GraphPad PRISM® 9.0 software to calculate EC50 and Bmax. The cell binding strength of antibody-A and ADC-A was evaluated based on the calculated values.

[2] = 2 mg/kg, 1 time/Day1, Intravenous Injection (G2, G8)

Row | Molecule | Tumor Volume (mm^3) (Average ± Standard Deviation) Day 1 (SNU601 cell line; [2]) | Tumor Volume (mm^3) (Average ± Standard Deviation) Day 8 (SNU601 cell line; [2]) | Tumor Volume (mm^3) (Average ± Standard Deviation) Day 15 (SNU601 cell line; [2]) | Tumor Volume (mm^3) (Average ± Standard Deviation) Day 22 (SNU601 cell line; [2]) | Tumor Volume (mm^3) (Average ± Standard Deviation) Day 28 (SNU601 cell line; [2]) | Tumor Weight (g) (Average ± Standard Deviation) 28th day after first administration (SNU601 cell line; [2]) | TGI (%) Day 28 (Tumor Growth Inhibition) (SNU601 cell line; 2 mg/kg, 1 time/Day1, Intravenous Injection (G2, G8), vs G1 saline) [%] | internalization (in words) (MIA PaCa-2 (CLDN18.2-)) | Bmax (SNU601) | Bmax [1] | binding to cell line (in words) [1] | Tumor Weight (g) (Average ± Standard Deviation) 28th day after first administration (SNU601 cell line; 1.75 mg/kg, 1 time/Day1, Intravenous Injection (G7)) | tumor growth inhibition (TGI) (SNU601 cell line; all ADC-A treatment groups (1 to 2 mg/kg, G4 to G8), Day 28) [%]
1 | B1 | 155.8 | 211.3 | 280.4 | 316.8 | 384.3 | 0.250 ± 0.092 | 9.3 | not internalized | 3.002 | 1.149 | specifically bind |  | 
2 | B2 |  |  |  |  |  |  |  | not internalized | 2.752 | 0.9386 | specifically bind | 0.002 ± 0.006 | 60.1 to 98.3
